# Measurements: publication PMC6212790
# This is one part of the list. At the low end of the ranking, values are background and their order means little.
# Target: T1, GST-Rok-C97-191 (UniProt O34857)
# T1 sequence: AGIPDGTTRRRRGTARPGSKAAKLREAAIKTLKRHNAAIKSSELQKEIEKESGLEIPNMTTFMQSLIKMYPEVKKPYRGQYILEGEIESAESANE
# Experiment: protein binding microarray;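 note: rank score from −0.5 (least bound) to 0.5 (best bound)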
# Conditions: Rok is a gene silencer of Bacillus subtilis; high values mean tight binding; most listed sequences are background and not binding sites; double strand, one strand shown
row,Sequence,binding signal [E-score]
1,ACTTCAAG,-0.039
2,ACTACTCA,0.265
3,GTGAATCA,-0.166
4,ACAGGGAC,-0.11
5,ATGGGAAA,-0.0341
6,AAAGATTC,0.156
7,AGATCCCA,-0.00972
8,CCCGTAAC,0.0565
9,CGTTTTTC,-0.162
10,ACATGAAG,0.0346
11,ACTGATTC,0.173
12,ACATGAGA,0.148
13,GAAACAGA,0.0689
14,AATATGTC,0.135
15,CTTGACTA,0.165
16,CCTACAGC,-0.0272
17,GAGCCGAA,-0.0816
18,GATTTGCC,-0.0374
19,CTAGTAGA,0.382
20,TAGACATA,0.0841
21,CAGTCCTC,-0.284
22,CGATTCGC,-0.131
23,TCATGCCA,-0.000693
24,AGTTACAT,0.342
25,ATACTCTC,0.0157

row,Sequence,binding signal [E-score]
1,ACTGGGCA,-0.327
2,AAGTCAGC,-0.228
3,AAGACTTG,0.00361
4,CGCGTCGA,-0.0553
5,ATTTACGC,0.00742
6,AAAATAAC,0.2
7,CAGAACAC,-0.165
8,GAATTTAC,0.282
9,ATTTGCAG,0.0703
10,ACTTCCGC,0.0187
11,CCAGGTTA,-0.0595
12,TCTCCGCA,-0.181
13,ACGGTTCT,6.54e-05
14,AGGGCTGC,-0.257
15,ATCATGAC,0.0342
16,CCAGAGAC,-0.112
17,CCGCAATC,-0.0456
18,GGAAGGAC,-0.11
19,AACGACGC,-0.196
20,GCAAGCGA,-0.0261
21,ACTCTTTC,-0.0799
22,TGACTGCA,-0.0427
23,ATGCTAAA,0.144
24,ACAAGTTC,-0.0558
25,ACCAAGTC,-0.214

row,Sequence,binding signal [E-score]
1,ATATTTTG,0.237
2,ATCATAGG,0.0665
3,CAAAGACC,-0.0766
4,GCATTAGA,-0.0444
5,AAGCTTGG,-0.0293
6,CACAGCGC,-0.276
7,CGTCCCAG,-0.132
8,GCCGTCAA,-0.135
9,AAATTGTG,0.108
10,GACTTCCC,-0.115
11,GCCTAGCA,-0.09
12,AATCCCTC,-0.105
13,AGCGTTTA,0.016
14,AGACCCCT,-0.337
15,ATATGCAG,0.0409
16,AAGTATAT,0.318
17,ACATTCAA,0.105
18,ATCTACAA,0.266
19,ACAGTCAC,-0.0206
20,CCGCTAGC,0.0168
21,ACCTACAG,0.0787
22,AAAGGTCA,-0.146
23,CCTATTTC,-0.00542
24,CCATCTTC,0.00999
25,ATACCCGA,0.166

row,Sequence,binding signal [E-score]
1,AACGTTAA,0.112
2,CTGGCGAA,-0.0196
3,ATTACCGA,0.191
4,GATTCTGA,0.18
5,GATAATTA,0.201
6,CACCAAAG,0.0283
7,GGTGATAA,0.102
8,ATCGGGCC,-0.173
9,GTTTACTA,0.121
10,GGGAACCC,-0.213
11,GGTAAAGA,0.177
12,GAAACCTA,0.12
13,CAGATGTC,0.0905
14,CCAGTTGC,0.015
15,GCTATAGC,0.22
16,ATAGCGTC,0.15
17,GTGTGCCA,-0.216
18,GCCTTTCC,-0.325
19,GAGTACGA,-0.0364
20,GGGCTGTA,-0.0262
21,ACTATAGG,0.148
22,ACCAAGCT,0.000898
23,CTTATTGA,0.0265
24,ACCGTCCC,-0.132
25,ATTGACTC,0.00937

row,Sequence,binding signal [E-score]
1,TCCAGCAA,0.183
2,GTAGGCAC,-0.108
3,CTTTGCTC,-0.124
4,ACCATAAT,0.153
5,CTTGCGCA,-0.0858
6,AGGAACGC,-0.118
7,GATGGGAA,0.104
8,ACACGCCT,0.000764
9,AATTAGCA,0.246
10,ACCGAGCT,-0.0142
11,AACGTGAT,0.0767
12,GTGGAGCA,0.057
13,AGGATCCG,-0.138
14,GTCACCGA,-0.0297
15,AGATGATG,-0.0485
16,ACTTCCTC,-0.124
17,ACGGGAGG,-0.215
18,AACTCGGG,0.202
19,AGACTCCG,-0.0814
20,GGGTCACA,0.107
21,AATGTACC,0.373
22,CCGGTAGG,0.058
23,AACCTCAG,0.129
24,GTGAATAA,-0.0509
25,CGAGATTA,0.0604

row,Sequence,binding signal [E-score]
1,CTTGCGAA,-0.211
2,ATAAGTTG,0.181
3,ACTGGTCC,-0.202
4,ATGCGGCG,-0.186
5,GACGTTCA,-0.173
6,CCGCGGCC,-0.374
7,TCCCCCGA,-0.265
8,ATCAATCA,0.143
9,CAAGAAGC,-0.193
10,GCGCTCGA,-0.0923
11,CTCGGGCC,-0.213
12,GGGAGAAA,-0.0512
13,CACCATGC,-0.0257
14,AGGTATAT,0.258
15,ATCAGAAC,0.0576
16,GAAGCAAC,-0.0116
17,AGATATCG,0.24
18,AGTCAGGA,-0.181
19,TAGGGCCA,-0.0385
20,GACCAGCA,-0.254
21,AAAATCTA,0.339
22,ATGGAACG,-0.179
23,CATCACCC,-0.267
24,AGCCCATG,-0.109
25,AGATTAGA,0.233

row,Sequence,binding signal [E-score]
1,GCTCGAGC,-0.176
2,CTCATACA,0.109
3,AATGCAAA,0.133
4,ACAGCGCT,-0.144
5,ATCGCTCC,-0.234
6,ACTGCAAC,0.0936
7,ACTCGGAT,0.13
8,ATCAAGAG,0.121
9,CGTCTAAG,-0.0871
10,AATGATCC,0.0426
11,CTCATAGC,-0.194
12,GAATTGTA,0.107
13,ACTTCCAA,0.174
14,GCACTAAA,0.172
15,GTGGCTGA,-0.15
16,AAATCACT,-0.0376
17,GGCAACCC,-0.299
18,CCTAGCCA,-0.219
19,GATGTAGA,0.23
20,ATACTGTG,-0.082
21,CAATGTGC,0.0562
22,AAGCGTCA,-0.165
23,ACTCGCAG,-0.105
24,GAGCCTGC,-0.0866
25,GAGAGCGA,-0.0867

row,Sequence,binding signal [E-score]
1,CTGATACA,0.166
2,ACCAACGT,0.0973
3,GAGGGGGC,-0.379
4,AAAGTGGC,-0.00226
5,AGCGCAAA,0.09
6,AAAGCGGA,0.152
7,AATTTATC,0.233
8,TAAGAATA,0.162
9,GCCATCGC,-0.142
10,CGACTAGC,1.3e-05
11,AAACGCAC,-0.0855
12,ATTGCACC,0.0239
13,ATAAGCCC,-0.0847
14,GACCCACA,-0.038
15,ACAACGCT,0.00207
16,TCATTGAA,0.0482
17,AGAGAGAA,-0.0177
18,AAATATAC,0.401
19,ACATAGTA,0.298
20,CGGGGTAG,0.00851
21,CCCACCCC,-0.295
22,GCTAAACC,0.00369
23,ATCCTCGC,-0.169
24,CCGGTCGA,-0.00159
25,AACTCGGA,0.0454

row,Sequence,binding signal [E-score]
1,AAGTGACA,-0.055
2,CCAACGAC,-0.172
3,GTCGTCAC,-0.118
4,CACGGGAG,-0.217
5,GGCTGGGA,-0.344
6,TAATGGGA,-0.157
7,CGCCGCCC,-0.41
8,CAAACCGA,-0.0264
9,ATTCTCAC,0.193
10,ATGCGCGA,-0.0205
11,ACCCGTCT,-0.171
12,GAAATTTC,0.128
13,CCGGCAAC,-0.129
14,AGTAATTC,0.273
15,TGACACCA,0.0252
16,AAGAAGGC,-0.29
17,CTCTGACC,-0.368
18,CAGAGGAC,-0.183
19,ACCCATAT,0.0623
